# Measured values as given in ChEMBL document CHEMBL4888484, “Replenishing the malaria drug discovery pipeline: Screening and hit evaluation of the MMV Hit Generation Library 1 (HGL1) against asexual blood stage Plasmodium falciparum ,using a nano luciferase reporter read-out” (2022).
# About 540 (0.36%) of roughly 150,000 compounds showed an effect of 50% or more. The list shows a part of the results.
# Tested on: Plasmodium falciparum
# Assay: Primary screen in NF54 nanoGlo assay, in single point, at 2uM, 72h; a lower Z score goes with more inhibition
# Assay type: functional, Erythrocyte
# Settings: timepoint 72 hour
Compound,% Inhibition [%],Z score
O=C(c1nc2ccccn2c1F)N(Cc1ccsc1)C1CCCC1,-16,1.68
O=C(CN1CCCCCC1)Nc1cccc(-c2cnc[nH]2)c1,-1,0.15
Cc1cccc(NC(=O)N2CCC(n3cnc4c(Cl)cccc4c3=O)CC2)c1,2,-0.28
CCS(=O)(=O)NCCc1ncc(C)n1C1CCC1,5,-0.76
CN(C(=O)Nc1ccc(F)cn1)[C@H]1CC(C)(C)OC1=O,-4,0.57
C[C@H]1CC(=O)NCCN1c1ncnc2ccsc12,-10,1.42
Cc1cc(C(=O)CN2C(=O)C(=O)N(C3CCCCC3)C2=O)c(C)[nH]1,-1,0.26
O=C(NCCc1ccc(N2CCCC2)cc1)C(=O)NCc1ccc(Cl)cc1,-6,1.06
COc1cc(=O)c(C(=O)NCCN2CCCCC2)nn1-c1ccc(F)cc1,40,-5.73
COC(=O)c1cccc(NCc2cc(C#N)n(C)c2C)c1,-14,2.21
Nc1nnc([C@H]2CC(=O)N(c3ccc(OC(F)(F)F)cc3)C2)o1,-4,0.41
COCCNC(=O)N[C@@H](Cc1ccccc1)C1CC1,2,-0.26
FC(F)(F)C1CCC(CNc2nc(C3CC3)ns2)CC1 (configuration not stated),-16,2.95
CC[C@H](C)NCCOCCOc1ccc(C(C)(C)C)cc1,9,-1.2
CC(C)c1nc([C@@H]2CCCCCN2CC(N)=O)no1,-3,0.38
N[C@H]1C[C@@H](c2nc(Cc3c(F)cccc3F)no2)[C@@H]2C[C@@H]21,-9,1.37
CC(C)[C@H](Cn1cncn1)NC(=O)c1ccoc1,12,-1.56
CCS(=O)(=O)NC[C@@H](c1ccc(Cl)cc1)n1ccnc1,6,-0.75
Cc1noc(C)c1[C@@H](C)CNC(=O)c1c[nH]nc1C(C)(C)C,1,-0.17
O=S(=O)(c1ccc(NCCn2ccnc2)cc1)N1CCCC1,-1,0.13
CCN(C)C(=O)c1cccc(Nc2c(Oc3ccc(Cl)cc3)cnn(-c3ccc(OC)cc3)c2=O)c1,-9,0.89
CC(C)N1CCC(CN2CCc3[nH]cnc3[C@@H]2Cc2ccccc2)CC1,-11,1.41

Compound,% Inhibition [%],Z score
CN(CC(=O)N1CCNC(=O)C1)c1ccccc1Oc1ccccc1,10,-1.85
O[C@H](COc1ccccc1)CN1CCN(Cc2cnc3ccccc3c2)CC1,-4,0.4
CN1CCC(Cc2nc(CN3CCCCCC3)n(CCO)n2)CC1,-4,0.94
CCC(=O)NC[C@@H]1C[C@H](F)CN1C(=O)Cc1cc(C)no1,-2,0.24
CC(C)N1CC(NS(=O)(=O)CCC(C)(C)C)C1,-9,1.28
Cc1cc(NC(=O)Cn2nnc(C(C)(C)C)n2)n(C2CCCCC2)n1,-4,0.52
CC(C)Oc1cc(CNC(=O)N2CCC[C@@H]2CF)ccn1,9,-1.1
Cn1nccc1COCC(=O)N1CC(C)(C)Oc2ccccc21,-11,1.78
Cc1sc(C(=O)N2CC[C@H](C(=O)O)C2)cc1-c1ccc(F)cc1,-12,1.69
c1ccc2c(-c3csc(NC4CC4)n3)c[nH]c2c1,7,-0.83
Cc1ccc(NC(=O)n2ccc([C@H](C)Oc3ccc(-c4ccccc4)c(F)c3)n2)cc1,1,-0.18
COc1cccc([C@@]2(CC(=O)N3CCC(C)CC3)CC(=O)N(C3CCCC3)C2=O)c1,-15,2.33
Cc1noc(C)c1CN1C[C@H]2CC[C@@H](C1)N(CCCOc1ccccc1)C2,-5,0.83
Cc1c(-c2csc(C[C@H](C)n3cc(Cl)cn3)n2)oc2ccccc12,8,-1.04
CN(Cc1ccccc1Br)C(=O)CCNC(=O)Nc1cccnc1,-5,0.96
COc1cccc(C[C@@H]2C(=O)N(C)c3ccc(Br)cc32)c1OC1CCCC1,-13,1.11
Cn1ccnc1-c1nccn1Cc1csc2ccc(Cl)cc12,-5,0.66
O=c1c2ccccc2nnn1CN1CCOC2CCCCC21 (configuration not stated),-12,1.65
CCO[C@@H](C)CN(C)C(=O)c1cccc(-c2ccc3scnc3c2)c1,-9,1.07
CCN1C(=O)CCN(S(=O)(=O)c2cccc(OC)c2)CC12CCOCC2,-8,1.01
COc1cccc(CNC(=O)c2cc3c(n2C)CCN(Cc2cccc(F)c2)C3)c1,-11,1.42
COc1ccc(Cn2nc3cnccn3c2=O)cn1,-4,0.5

Compound,% Inhibition [%],Z score
CN1CCC(N(Cc2ccncc2)Cc2cnc(-c3ccco3)nc2)CC1,-1,0.21
CCN(Cc1c(C)nn(CC)c1C)C(=O)c1cc(-c2cnn(C)c2)nc2onc(C)c12,-16,3.18
O=C(Nc1nnc([C@H]2CC(=O)N(c3ccccc3)C2)o1)c1ccccn1,-12,1.84
Cc1ncsc1NC(=O)c1cc(O)nc(C(C)C)c1,-9,0.76
C#CC(OC(=O)C1CCCN1C(=O)C(F)(F)F)C1CC1 (configuration not stated),-5,0.68
CC(C)NC(=O)N1CCC(C(=O)NC2CC2)CC1,2,-0.22
COc1cc2ccccc2cc1-c1nnc(-c2ccc(Cl)cc2Cl)o1,-14,1.79
O=C(NCC1CCN(c2cc(O)ncn2)CC1)c1ccncc1,-10,1.23
COCCc1noc([C@@H]2CC=CCC2)n1,5,-0.77
COCc1ncc(CN2CCc3ccc(OC)cc3CC2)cn1,-17,1.52
CC1CN(C(=O)CCN2CCc3sccc3C2c2cccc(F)c2)CCN1C(=O)c1cccs1 (configuration not stated),0,-0.05
COc1cc([C@H](CC(=O)NC2CCN(Cc3ccccc3)CC2)N2Cc3ccccc3C2=O)cc(OC)c1OC,68,-9.85
Cc1[nH]cnc1CN1CCC2(CC1)C[C@H](c1ccccc1)CN(C1CC1)C2,2,-0.46
Cc1ccc(C)c(S(=O)(=O)NCCN[C@@H](C)c2cn[nH]c2C)c1,-6,0.74
COCCN(Cc1cc(NC(=O)NC(C)(C)C)ccc1N(C)C)C(=O)c1cccs1,-11,1.54
Cc1cc(C(=O)N(CCC#N)C2CC2)c2c(-c3ccco3)noc2n1,-6,0.66
OCCc1cn(C2CCN(c3cc(N4CCOCC4)ncn3)CC2)nn1,-6,0.92
O=C(CN1CCN(CC(F)(F)C(F)F)CC1)NCc1ccco1,-8,1.26
C=CCN(C)C(=O)c1cnc(C2CCN(C(=O)OC(C)(C)C)CC2)o1,-9,1.48
CCc1ccc(CN2CCC(Oc3ccc(C)cc3)(C(=O)O)CC2)nc1,4,-0.86
Cc1[nH]c2cc(-c3ccccc3)nn2c(=O)c1Cc1ccccc1,-1,0.08
Cc1noc(C2CN(Cc3ccoc3)C2)n1,-8,1.6

Compound,% Inhibition [%],Z score
CN(C)C(=O)NCC(=O)NCCCn1cc(Cl)cn1,10,-0.98
CC(C)(C)C(=O)N1C2CCC1CC(n1ccnn1)C2 (configuration not stated),-3,0.47
CCOC(C)(C)CS(=O)(=O)N(C)Cc1ccoc1C,-6,1.24
CC(C)c1noc(CN(C2CC2)S(=O)(=O)c2cccnc2)n1,-18,1.58
Cc1ccc2ncc(-c3nccn3C(C)C)cc2c1,-10,1.95
O=C(c1cscn1)N1CCC=Cc2ccccc21,1,-0.27
CCCCn1c(N)c(N(Cc2ccccc2OC)C(=O)c2cc(C)cc(C)c2)c(=O)[nH]c1=O,-4,0.45
FC(F)COc1cccc(CNC2C3CCOC3C23CCC3)n1 (configuration not stated),-2,0.23
Cc1ccc(C(=O)N2CC[C@H](N(CCN3CCCC3)S(=O)(=O)N(C)C)C2)cc1C,-3,0.47
OCCC1(CNC[C@H](O)c2ccccc2F)CCC1,-15,1.9
Cc1cc(C(=O)N2CCO[C@H](c3ccccc3)CC2)ncn1,-14,2.71
COCCOCCNC(=O)c1sc(-c2c(C)noc2C)nc1C,28,-3.15
CC(C)[C@@H](CO)NC(=O)C1(C)COC1,-9,1.7
COc1ccc2ccn(Cc3ccccc3C)c(=O)c2c1,-10,1.98
C=CCC(C(=O)NC(C)c1nnc(C(F)(F)F)[nH]1)c1ccccc1 (configuration not stated),-4,0.83
CC(C)c1ccc(CN2CCOc3c(O)cc(-c4ccccn4)cc3C2)cc1,-15,2.02
CCN1C(=O)c2cc3ccccc3n2C[C@@]1(C)C(=O)NCC(=O)NCc1ccc(OC)cc1,-4,0.41
Brc1ccccc1OCCN1CCc2nc[nH]c2C12CCOCC2,-18,2.77
Cn1nc(C(F)F)cc1C(=O)NC[C@H]1CCCN(c2ccnc(C(=O)O)c2)C1,-8,1.37
COC[C@H](C)NC(=O)Nc1cccc(Cl)c1F,-14,1.23
